Test results as given in the supplement of paper PMC12632987.
Whole data set: some 2,300 sequences, median “median log2 fold change of GCK-ALFA target abundance (FLAG IP / Myc IP barcode read proportion)” near 0.095, cut for the lowest 2% near -0.47. This is one part of the list.

B1: LC3A_3_1583 (protein)
chain: MEERVAAARERLRAAGMPEEVVDRAVRVIEALLAKGAEEAAELLLEGLLELHKVAPELLPETLEEVEKLVADESLTPEELLEKVREILTTALNEAEIIEL
B2: LC3A_3_1670 (protein)
chain: MEEIKKLLEKMEKAKTAKEKLEYLRKAAEKLLEYYGKEEEKKEVTENLEKLFSQDDEFLEEAVKILKEELEKVIENGPEEIEKLVETSKTLANESEIEEL
B3: LC3A_28_723 (protein)
chain: GELEESLEKAIKEAEEAAKAGKEVVITIKVPGNATEEDIEKVIEALYKIAEITKDLPSTSIIIDVDGGVKQEHIDKLADAAEEIEEKYPNVTVIIALDEE
B4: LC3A_3_1790 (protein)
chain: MEEELEELLERLREAGHSEETIEAVRETGELLIERGYEEALRTFIEEMRELLDAPDELLLELAEDVLELLLTEDISEEELRERIREEARLARLESEIIEL
B5: LC3A_132_315 (protein)
chain: MEEEYEKLRKEALKLLEEAKKNVNNLEKVKKLFEELRKILEEAEKKITPEQVAELFDEVADRLDEIARLAEAAGQEEVADLASGLAVEAAALSIRAEEKI
B6: LC3A_23_620 (protein)
chain: MIKIEVEVDLLVPAAEADAKLATMRATAEAAIEKLKDKIEKSELEFEREELPDGTVFLRARITLYTNVSMEEAKEIANEIVSAFSEALPDAVISYEVEEL
B7: LC3A_132_246 (protein)
chain: SEEEYKKALAELKEIIDKIVELLKEGKDPLPAIVELEEKAREIAEKLSLEETEKLVEETIEYAEKRFEEELDPNDEEARRTLDIIEMLLEGVLIEKELRS
B8: LC3A_45_1920 (protein)
chain: MYRATVDLLVPRELLEKVLKTIRETAAELEAESGGALTFDLEGLEETAKKTINEEEVYLRLEIYGEDKDLVLDAADRIVDAIEEATGKNIAAMISFEELP

The binders below were run against MAP1LC3A, Q9H492 (assay: median log2 fold change of GCK-ALFA target abundance (FLAG IP / Myc IP barcode read proportion) (log2 ratio); each designed protein is fused to an ALFA-tag nanobody in HEK293 cells to bring the named protein to FLAG-tagged glucokinase (GCK); Myc marks an untargeted standard; higher = target protein stabilised (more abundant)). Conditions: target protein: 3xFLAG-MCP-GCK-ALFA reporter; HEK293 landing pad (RPLP).
How it was run: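 Sequencing of reverse-transcribed, amplified circular RNA barcodes from anti-FLAG and anti-Myc immunoprecipitates provided the readout for an ALFA-nanobody-fused binder library recombined into HEK293 landing-pad cells. Those cells were induced with 2 μg mL^−1 doxycycline, transfected with a plasmid expressing a FLAG-tagged target and a Myc-tagged standard, and lysed after 48 h. Target abundance is the per-binder median log2 ratio of FLAG to Myc barcode read proportions. Only barcodes at a proportion of ≥10^−7 in both replicates and binders with ≥3 barcodes per replicate were kept, with a 10^−6 pseudocount added before the two replicates were pooled.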

Binder	median log2 fold change
B1	0.128
B2	0.204
B3	0.106
B4	-0.254
B5	0.422
B6	-0.338
B7	-0.415
B8	-0.00751
